Experimental data: ChEMBL document CHEMBL4888484, “Replenishing the malaria drug discovery pipeline: Screening and hit evaluation of the MMV Hit Generation Library 1 (HGL1) against asexual blood stage Plasmodium falciparum ,using a nano luciferase reporter read-out” (2022)
The campaign covered roughly 150,000 compounds. About 540 (0.36%) showed an effect of 50% or more. This is one part of the list.

What follows are compounds tested on Plasmodium falciparum (assay: Primary screen in NF54 nanoGlo assay, in single point, at 2uM, 72h; a lower Z score goes with more inhibition). Conditions: timepoint 72 hour.
Assay type: functional, Erythrocyte
With `COc1ccccc1C(=O)Nc1ccc2c(c1)C(O)=Nc1cccnc1O2` the “% Inhibition” value was 15% and the Z score was -2.78.
In the case of `CCC(CC)c1nnc(NC(=O)N2CC[C@H](S(C)(=O)=O)C2)s1`, the “% Inhibition” value is reported as 7% and the Z score is reported as -1.03.
In the case of `COc1ccc2c(C)c(C(=O)N3CCc4nc(C)[nH]c(=O)c4CC3)oc2c1`, the “% Inhibition” value is reported as -5% and the Z score is reported as 0.6.
For `CC1CN(C[C@H]2CCCN2C(=O)OC(C)(C)C)CCS(=O)(=O)C1` (some centres not stated), the “% Inhibition” value was 13% and the Z score was -1.6.
`COc1ccc(=O)n(Cc2cc(C(C)(C)C)on2)n1` was tested, and the “% Inhibition” value was 0% and the Z score was -0.05.
For `CS(=O)(=O)c1ccccc1CCNC(=O)[C@H]1CCn2ccnc2C1`, the “% Inhibition” value was 0% and the Z score was -0.04.
`COCCN1C[C@]2(CCCN(C(=O)CCc3cccc(F)c3)C2)CCC1=O` was tested, and the “% Inhibition” value was 9% and the Z score was -1.63.
In the case of `CC(C)NC(=O)c1nsc(C(=O)NCc2cccnc2)c1N`, the “% Inhibition” value is reported as -19% and the Z score is reported as 1.86.
For `Cc1nccn1CCCNc1ccc(OC(F)F)cc1`, the “% Inhibition” value was -4% and the Z score was 0.3.
In the case of `COc1ccc(-n2nc(C)c3sc(N4CCCN(C(=O)C(F)(F)F)CC4)nc32)cc1`, the “% Inhibition” value is reported as -9% and the Z score is reported as 1.05.
In the case of `Cn1nc(-c2cccc(Cl)c2)cc1C(=O)NC[C@@H]1CCCN2CCCC[C@H]12`, the “% Inhibition” value is reported as -6% and the Z score is reported as 0.88.
`CCCn1cc(C(=O)N2CC(=O)N(c3cccc(C)c3)C[C@@H]2C)c(C)n1` was tested, and the “% Inhibition” value was 3% and the Z score was -0.65.
For `O=C1CC[C@@]2(CCCO2)CCN1Cc1noc(-c2ccco2)n1`, the “% Inhibition” value was 1% and the Z score was -0.19.
In the case of `Cc1cccc(CN2CCN(C(=O)c3cc(C)nc(N)n3)[C@@H](C)C2=O)c1`, the “% Inhibition” value is reported as -2% and the Z score is reported as 0.2.
With `Cc1[nH]c2ncnc(NC(=O)c3cccc(S(=O)(=O)NC4CC4)c3)c2c1C` the “% Inhibition” value was -21% and the Z score was 3.01.
With `COc1ccc(O)c(-c2nc(-c3csc(C(C)C)n3)no2)c1` the “% Inhibition” value was -13% and the Z score was 1.25.
With `Cc1csc(NC(=O)CCC(C)C)n1` the “% Inhibition” value was -12% and the Z score was 1.67.
In the case of `CC(C)(C)OC(=O)c1ccccc1NC(=O)[C@@H]1COCCO1`, the “% Inhibition” value is reported as 6% and the Z score is reported as -0.72.
For `Cc1cccc(-n2nc(C)c(CCC(=O)NC3CC3)c2Oc2ccccc2C)c1`, the “% Inhibition” value was -7% and the Z score was 1.19.
With `CC1(c2cc(NC(=O)NC3(c4ccc(C#N)cc4)CCOCC3)no2)CCCC1` the “% Inhibition” value was 2% and the Z score was -0.23.
With `CC1=C(C(=O)NCc2cc(CC(C)C)on2)[C@H](c2[nH]cnc2C)NC(=O)N1` the “% Inhibition” value was -7% and the Z score was 1.21.
In the case of `Cc1noc(C)c1C(=O)N(C)CCn1ccnc1`, the “% Inhibition” value is reported as 4% and the Z score is reported as -0.82.
`Cc1ncsc1C(=O)N1CCCC[C@H](S(C)(=O)=O)C1` was tested, and the “% Inhibition” value was -10% and the Z score was 1.73.
With `CC[C@@H](c1cccnc1)N(C)S(=O)(=O)c1c(C)n[nH]c1C` the “% Inhibition” value was -2% and the Z score was 0.38.
With `O=C1CC[C@H](NC(=O)c2cccc(COc3cccc(F)c3)c2)CN1` the “% Inhibition” value was 0% and the Z score was -0.02.
In the case of `O=C(CCN1C(=O)CCC1=O)Nc1cccc(S(=O)(=O)N2CCCC2)c1`, the “% Inhibition” value is reported as 10% and the Z score is reported as -0.96.
`CCc1nc(CCNc2ccnc(C)c2)cs1` was tested, and the “% Inhibition” value was -16% and the Z score was 2.54.
`O=C(Cn1cc(S(=O)(=O)N2CCOCC2)ccc1=O)Nc1ccc(F)cc1` was tested, and the “% Inhibition” value was 1% and the Z score was -0.24.
For `COCCN(Cc1nc(C2CC2)no1)C(C)C`, the “% Inhibition” value was -5% and the Z score was 0.88.
For `CC1(C)CN(S(=O)(=O)Cc2ccccc2)C[C@]2(C[C@@H]3CC[C@H]2C3)O1`, the “% Inhibition” value was -2% and the Z score was 0.29.
`COc1ccc(N(Cc2nc(-c3ccccc3)oc2C)S(=O)(=O)c2ccccc2C)cc1` was tested, and the “% Inhibition” value was 0% and the Z score was 0.06.
With `O=S(=O)(c1cc(F)ccc1F)N1C[C@H](COCC2CC2)C2(CCOCC2)C1` the “% Inhibition” value was -2% and the Z score was 0.28.
In the case of `Cc1noc(CC2CCN(C(=O)CN3C(=O)OC[C@@H]3c3ccccc3)CC2)n1`, the “% Inhibition” value is reported as -7% and the Z score is reported as 1.05.
For `O=C(NCc1cn(-c2ccncc2)nn1)OCC1CCC1`, the “% Inhibition” value was 6% and the Z score was -0.81.
For `Cc1cc(C(=O)N2CCOCC2)ccc1N(C)Cc1ncccc1Cl`, the “% Inhibition” value was 6% and the Z score was -1.24.
`c1ccc2c(c1)ncn2CNn1cnnc1` was tested, and the “% Inhibition” value was 0% and the Z score was 0.08.
In the case of `Cc1ccc(-c2nnc(CNCCc3nc(-c4cccnc4)n[nH]3)o2)n1C`, the “% Inhibition” value is reported as -12% and the Z score is reported as 2.41.
With `C[C@H](NCC(C)(C)C(N)=O)c1cc(F)cc(F)c1` the “% Inhibition” value was -12% and the Z score was 1.08.
With `Cc1cc(OCc2nc(C)c(C(=O)Nc3nnc(C4CC4)s3)s2)ccc1Cl` the “% Inhibition” value was -13% and the Z score was 1.88.
`CCCCc1noc([C@H](C)S(=O)(=O)Cc2ccn(-c3ccccc3)n2)n1` was tested, and the “% Inhibition” value was 0% and the Z score was -0.01.
For `Cc1ccc(CN2CCN(C(=O)c3cnc[nH]3)[C@@H](C)C2=O)cc1`, the “% Inhibition” value was -9% and the Z score was 1.84.
For `Cn1ccc([C@@H]2CCCCN2C(=O)c2csc(-c3cccs3)n2)n1`, the “% Inhibition” value was 0% and the Z score was -0.09.
In the case of `CCCN(CC(C)(C)O)C(=O)c1ccc(CC(C)C)s1`, the “% Inhibition” value is reported as 2% and the Z score is reported as -0.35.
In the case of `COCc1nsc(N2CCC[C@H](CC(F)(F)F)C2)n1`, the “% Inhibition” value is reported as -2% and the Z score is reported as 0.31.
In the case of `OC[C@@]1(CCc2ccccc2)CCCNC1`, the “% Inhibition” value is reported as -7% and the Z score is reported as 1.18.
In the case of `COC(=O)c1cc2n(n1)C[C@@](C)(C(=O)NC1CCCCC1)N(c1cc(C)cc(C)c1)C2=O`, the “% Inhibition” value is reported as 5% and the Z score is reported as -0.6.
For `O=C(Nc1cccc(Cn2ccnc2)c1)c1cccnc1O`, the “% Inhibition” value was -4% and the Z score was 0.38.
`C[C@H]1Cc2ccccc2N1Cc1nc2ccccc2o1` was tested, and the “% Inhibition” value was -1% and the Z score was 0.15.
`Cc1cnc(C)c(N2CCC(NC(=O)CC3CCCCC3)CC2)n1` was tested, and the “% Inhibition” value was -17% and the Z score was 2.14.
For `Cc1ccccc1NC(=O)OCC(F)(F)F`, the “% Inhibition” value was -4% and the Z score was 0.68.
`Cn1ccnc1CN1CCC2CCC(C1)N2C(=O)OC(C)(C)C` (configuration not stated) was tested, and the “% Inhibition” value was -11% and the Z score was 1.66.
For `Cc1nnc(CN(C)C(=O)NCc2ccc(OC(F)F)cn2)s1`, the “% Inhibition” value was 0% and the Z score was 0.
In the case of `COCc1nc(-c2ccsc2)n(CC(F)(F)F)n1`, the “% Inhibition” value is reported as 2% and the Z score is reported as -0.4.
For `O=c1c2ccccc2nnn1C[C@H]1CC[C@H](C(=O)NCc2ccccn2)CC1`, the “% Inhibition” value was -2% and the Z score was 0.45.
For `C=CCC(C(=O)NC(C)c1nn(C)cc1OC)c1ccccc1` (configuration not stated), the “% Inhibition” value was -13% and the Z score was 1.44.
With `CC[C@H](C)NCCOc1ccccc1C` the “% Inhibition” value was 8% and the Z score was -1.11.
`COc1ncccc1NCc1ccncc1` was tested, and the “% Inhibition” value was -8% and the Z score was 1.52.
`Cc1c(Cl)cccc1NC(=O)COc1cccc(-c2nnco2)c1` was tested, and the “% Inhibition” value was -8% and the Z score was 1.11.
For `CCCCN(CC(N)=O)C(=O)Cc1ccc(Cl)cc1Cl`, the “% Inhibition” value was -6% and the Z score was 0.76.
With `COc1cc2c(cc1OC)C(=O)C(C)(C)N(C(=O)CC(c1ccccc1)c1ccccc1)C2` the “% Inhibition” value was 5% and the Z score was -0.98.
For `CCCc1cc([C@@H]2CCCN2Cc2cc(OC)c(OC)c(OC)c2)no1`, the “% Inhibition” value was -10% and the Z score was 1.32.
For `CCOC(C)(C)C(=O)N[C@@H](COC)c1ccccn1`, the “% Inhibition” value was -6% and the Z score was 1.22.
`CCc1nsc(N[C@H]2CCC(=O)N(C)C2)n1` was tested, and the “% Inhibition” value was -12% and the Z score was 2.1.
With `CC(=O)Nc1ccc2c(c1)cc(C(=O)N1CCCC1)n2Cc1ccc(C(C)(C)C)cc1` the “% Inhibition” value was -12% and the Z score was 2.35.
`CC(=O)N1CCN(Cc2ccccc2NC(=O)c2cscn2)CC1` was tested, and the “% Inhibition” value was -17% and the Z score was 1.74.
In the case of `Cc1nnsc1CN(C)Cc1ccc([C@H](C)N(C)C)cc1`, the “% Inhibition” value is reported as -4% and the Z score is reported as 0.66.
In the case of `O=C(c1cnccn1)N1CCCCC[C@H]1C1CCCCC1`, the “% Inhibition” value is reported as -10% and the Z score is reported as 1.2.
With `Cc1ncc(CN(CCO)c2cccc(C(C)C)c2)o1` the “% Inhibition” value was -9% and the Z score was 0.89.
`NC(=O)CN1CCCN(c2ncnc3scc(-c4ccccc4)c23)CC1` was tested, and the “% Inhibition” value was -11% and the Z score was 2.04.
With `COc1ccc(Cl)cc1S(=O)(=O)c1cnc(N2CCC(NC(=O)OC(C)(C)C)CC2)nc1N` the “% Inhibition” value was 4% and the Z score was -0.6.
With `CN1CCN(C(=O)C[C@@H]2CCN3C[C@@H]2/C=C\COc2ccccc2CNCC3=O)CC1` the “% Inhibition” value was -4% and the Z score was 0.5.
In the case of `Nc1nc(N[C@H]2C[C@@H](c3cc(=O)[nH]cn3)C2)c2nc[nH]c2n1`, the “% Inhibition” value is reported as 12% and the Z score is reported as -1.38.
For `O=C(Nc1ccc(OC[C@H]2CCCCO2)cc1)C1(N2CCOCC2)CCCCC1`, the “% Inhibition” value was 1% and the Z score was -0.26.
For `C[C@]1(c2cccnc2)NC(=O)N(CC(F)F)C1=O`, the “% Inhibition” value was -7% and the Z score was 1.2.
In the case of `CNS(=O)(=O)N1CCC(F)(Cc2ccccn2)CC1`, the “% Inhibition” value is reported as -8% and the Z score is reported as 1.46.
`COCCc1nncn1C1CCN(C(=O)c2ccc(C(F)(F)F)cc2)CC1` was tested, and the “% Inhibition” value was -16% and the Z score was 2.8.
For `Cn1c(-c2ccccn2)nn(CC(=O)N2CCC(Cc3ccccc3)CC2)c1=O`, the “% Inhibition” value was 7% and the Z score was -0.78.
For `O=C(OCc1ccccc1)C1C2CCC(C2)C1NCc1nccs1` (configuration not stated), the “% Inhibition” value was 8% and the Z score was -1.45.
In the case of `O=C(CCCC1CCCCC1)N1CC[C@H](c2nn[nH]n2)C1`, the “% Inhibition” value is reported as -44% and the Z score is reported as 5.17.
With `CCCS(=O)(=O)N1CCC2(CC1)CC(=O)N(Cc1c(C)noc1C)C2` the “% Inhibition” value was 3% and the Z score was -0.47.
`NC(=O)C1CCCC1Nc1ccc(Br)cn1` (configuration not stated) was tested, and the “% Inhibition” value was -17% and the Z score was 1.99.
In the case of `CCOc1ccccc1-c1cc(C(=O)N2CCNC(=O)C2)n[nH]1`, the “% Inhibition” value is reported as -11% and the Z score is reported as 1.49.
For `CCn1ncc(NC(=O)Cn2ccc(-c3ccncc3)n2)n1`, the “% Inhibition” value was 2% and the Z score was -0.22.
`C[C@@H](NC(=O)CCc1ccc(Br)cc1)C(=O)O` was tested, and the “% Inhibition” value was 0% and the Z score was 0.03.
`CCN(CC)S(=O)(=O)NCc1c(C)n[nH]c1C` was tested, and the “% Inhibition” value was 13% and the Z score was -1.7.
In the case of `Cn1cc(C(NC2CCCC(C3CC3)C2)C(F)(F)F)cn1` (configuration not stated), the “% Inhibition” value is reported as -14% and the Z score is reported as 2.17.
